“And” between values parts separate entries of the source, which are not always exact repeats. Equal values may be shown once. About 64,000 (15%) of roughly 420,000 compounds were called active. Inconclusive results, whose numbers are uncertain, are shown with a selection of clear calls. Calls come from the whole dose curve; as a rule, active = well fitted inhibition curve with a large enough effect; inconclusive = small, poorly fitted or top-dose-only effect; inactive = flat fitted curve, though single readings scatter. Potencies of inconclusive entries are doubtful fits and often do not repeat.
Experiment: qHTS for Inhibitors of human tyrosyl-DNA phosphodiesterase 1 (TDP1): qHTS in cells in absence of CPT; note: nearly all actives have a fitted effect of over 55% in size
Conditions: DT40 Tdp1-/- hTDP1 cells, no CPT, ATP luminescence, 48 h; activity change, negative = growth inhibition: at 46.2 µM (top of the series) unless noted
Outline: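 Growth of hTDP1-complemented DT40 Tdp1-knockout cells is measured by ATP luminescence after at least 48 hr compound exposure at 37 °C, with DMSO substituting for the 20 nM CPT used in the parallel screen.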
% is set by controls: 0 for no effect and ±100 for the full control effect; potency is the fitted concentration of half-maximal effect; tags give direction and shape of the fitted curve.

SMILES	Potency	activity change, negative = growth inhibition
Cc1ccc(Cl)cc1N1CCN(C(=O)c2ccc(C)c(-n3c(C)nc4cccnc43)c2)CC1	active: 5.17 µM	–
Cc1cc(C(F)F)n2nc(C(=O)Nc3ccc(F)c(Cl)c3)nc2n1	inconclusive: 5.17 µM [inhibitor, single point]	–
CN1OC[C@@H]2CN[C@H](c3ccc(-c4cccc(F)c4)cc3)C[C@@H]21	inconclusive: 25.9 µM [inhibitor, single point]	–
Brc1c(CSc2nc3ccccc3s2)nc2ncccn12	inconclusive: 7.31 µM [inhibitor, full curve, poor fit]	–
COc1ccccc1NC(=O)CSc1nnc(-c2ccccn2)n1Cc1ccco1	–	inconclusive: -32.3% [inhibitor]
CCN(CC)C(=O)CSc1nc2ccccc2c(=O)n1CCC(=O)N1CCN(c2ccccc2)CC1	inconclusive: 23.1 µM [inhibitor, single point]	–
Cc1ccc(S(=O)(=O)N2CCC(=O)N([C@H](COCc3cccc(Cl)c3)C(C)C)CC2)cc1	active: 16.4 µM	–
Cc1ccc(-c2csc(N/N=C/c3ccco3)n2)cc1	inconclusive: 29.1 µM [inhibitor, single point]	–
CC1CCCCC12NC(=O)N(CC(=O)Nc1ccc(Cl)c(S(=O)(=O)N3CCOCC3)c1)C2=O (centres undefined)	active: 18.4 µM	–
CCOC(=O)C1=C(NC(=S)NC(=O)c2ccccc2)c2ccccc2CC1(C)C	inactive	–
O=C1c2oc3ccccc3c(=O)c2C(c2cccc(O)c2)N1c1ccccn1 (centres undefined)	active: 20.6 µM	–
COc1cc(Nc2ccccn2)cc(C(=O)Nc2cccc(C(F)(F)F)c2)c1	inconclusive: 16.4 µM [inhibitor, single point] and inconclusive: 29.1 µM [inhibitor, single point]	–
CCOc1ccc2nc(SCC(=O)N3CCCc4ccccc43)sc2c1	inconclusive: 29.1 µM [inhibitor, single point]	–
O=C(CC1N=C2c3ccccc3N=C(SCc3ccccc3F)N2C1=O)NCc1cccs1 (centres undefined)	active: 18.4 µM	–
CN(Cc1ccccc1)C(NC(=O)c1ccccc1)C(Cl)(Cl)Cl (centres undefined)	inconclusive: 35.5 µM [inhibitor, single point]	–
COc1ccc2nccc(C(N)=O)c2c1	inactive	–
COc1cccc(C(=O)C(=O)c2cccc(OC)c2OC)c1OC	inactive	–
COc1ccccc1C(CNC(=O)c1oc2ccccc2c1C)N1CCCC1 (centres undefined)	active: 23.1 µM	–
COc1cccc(Nc2nc(-c3ccccc3)c3cc(C)ccc3n2)c1	inconclusive: 23.1 µM [inhibitor, single point]	–

Reference: PubChem BioAssay AID686978 (National Center for Advancing Translational Sciences (NCATS), 2013)
